Results from article PMC4336329 (PLoS ONE, 2015).
The whole screen tested about 310,000 compounds, of which about 2,200 (0.71%) showed an effect of 50% or more. The effect is printed as a negative number. The list shows a part of the results.

What follows are molecules tested against human ether-à-go-go-related gene (hERG) potassium channel (human, UniProt Q12809) (assay: primary screen, population patch clamp on CHO cells stably expressing hERG).
Sequence of human ether-à-go-go-related gene (hERG) potassium channel (Q12809 whole entry, looked up): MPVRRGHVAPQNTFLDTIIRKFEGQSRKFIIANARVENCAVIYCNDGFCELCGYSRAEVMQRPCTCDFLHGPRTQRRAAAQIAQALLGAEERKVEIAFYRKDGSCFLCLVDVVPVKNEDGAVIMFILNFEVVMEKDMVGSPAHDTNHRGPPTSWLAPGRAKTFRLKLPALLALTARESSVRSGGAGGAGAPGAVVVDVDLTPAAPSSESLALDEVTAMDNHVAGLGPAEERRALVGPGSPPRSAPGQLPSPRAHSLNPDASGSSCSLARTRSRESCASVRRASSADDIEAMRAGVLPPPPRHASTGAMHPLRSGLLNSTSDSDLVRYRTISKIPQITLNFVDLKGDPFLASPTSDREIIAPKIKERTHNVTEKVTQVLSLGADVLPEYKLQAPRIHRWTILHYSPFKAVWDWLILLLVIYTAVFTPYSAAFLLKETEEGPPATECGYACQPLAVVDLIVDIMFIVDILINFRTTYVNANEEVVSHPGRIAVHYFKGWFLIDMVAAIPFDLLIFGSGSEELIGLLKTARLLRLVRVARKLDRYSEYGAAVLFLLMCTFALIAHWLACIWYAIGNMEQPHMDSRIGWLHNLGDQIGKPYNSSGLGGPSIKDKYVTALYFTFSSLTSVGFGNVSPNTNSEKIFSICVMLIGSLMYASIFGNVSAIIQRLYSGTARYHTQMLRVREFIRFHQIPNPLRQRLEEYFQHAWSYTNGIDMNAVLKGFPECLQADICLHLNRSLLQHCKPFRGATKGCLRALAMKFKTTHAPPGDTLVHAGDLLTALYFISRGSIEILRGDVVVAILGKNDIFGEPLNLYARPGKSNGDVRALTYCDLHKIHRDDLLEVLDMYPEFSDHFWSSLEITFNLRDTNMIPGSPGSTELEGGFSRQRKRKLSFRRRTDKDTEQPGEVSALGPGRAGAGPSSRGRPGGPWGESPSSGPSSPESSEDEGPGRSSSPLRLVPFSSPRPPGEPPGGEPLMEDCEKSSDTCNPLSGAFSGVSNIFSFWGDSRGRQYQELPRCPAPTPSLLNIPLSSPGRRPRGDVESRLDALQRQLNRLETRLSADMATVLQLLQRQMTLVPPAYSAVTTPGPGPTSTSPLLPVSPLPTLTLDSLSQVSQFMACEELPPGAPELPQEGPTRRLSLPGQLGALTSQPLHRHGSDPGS

SMILES | hERG current change (%, negative = inhibition) at 1uM [%]
COc1ccc(C(=O)Nc2c3c(nn2-c2cccc(Cl)c2)CS(=O)C3)cc1 (centres unmarked) | -1.67
COc1ccc(CCNC(=O)C2CC(c3ccc([N+](=O)[O-])cc3)=NO2)cc1 (centres unmarked) | -44
CC(=O)c1c(NCCc2ccccc2)cc(C)oc1=O | -2.33
CSc1nc2n(n1)C(c1cccc(F)c1)C(C(=O)Nc1ccc(C)cc1C)=C(C)N2 (centres unmarked) | 3.03
COc1ccc(S(=O)(=O)N(CC(=O)Nc2ccc3c(c2)OCO3)c2ccccc2OC)cc1 | 6.56
CCOc1cc(N2CCOCC2)c(OCC)cc1NC(=O)COc1cccc2cccnc12 | 14
Cc1ccc2c(c1)nnn2C1CCN(CC(=O)N(c2ccccc2)c2ccccc2)CC1 | 14.7
CO[C@H]1O[C@H](C)[C@@H](O)C[C@H]1NC(=O)OCc1ccccc1 | 15.1
CCOc1ccccc1C(=O)N1CCC(n2nnc3cc(C)ccc32)CC1 | -8.63
COc1ccc(C2/C=C\CN(S(=O)(=O)/C=C/c3ccccc3)[C@H](Cc3ccccc3)C(=O)N2Cc2ccc(F)cc2)cc1 (some centres unmarked) | 6.14
Cc1ccnc(N2C(=O)c3ccccc3C2Nc2ccc3c(c2)OCCO3)c1 (centres unmarked) | 6.78
CC1=C(C)CC(C(=O)Nc2nc(-c3ccc(C)cc3C)c(C)s2)C(C(=O)O)C1 (centres unmarked) | 17.9
COc1ccccc1OCC(=O)Nc1ccc(S(=O)(=O)N(C)c2ccccc2)cc1 | 8.13
CC(C)(C)c1csc(NC(=O)c2c(F)c(F)c(F)c(F)c2F)n1 | -2.19
O=C(O)CS(=O)(=O)c1ccc(C(F)(F)F)cn1 | 10.3
Cc1cc(S(=O)(=O)Nc2cccc(O)c2)c(C)s1 | 6.52
CSc1ccc(/C=N/NC(=O)CN2CCN(Cc3ccc(C)cc3)CC2)cc1 | 2.67
CCC(=O)Nc1nc2ccccc2n1CCN1CCOCC1 | 18.8
COC(=O)c1ccccc1NC(=O)CN1CCc2ccccc2C1 | 9.12
CC[C@H](C)[C@@H](C(=O)NCCCCCCCCCCC(=O)N1CCN(C(=O)OC(C)(C)C)CC1)n1cc(CCCCN=C(NC(=O)OC(C)(C)C)NC(=O)OC(C)(C)C)nn1 | 7.43
CCN(CC)c1ccc(/C=C(\C#N)C(=O)NCc2ccccc2)cc1 | -8.78
CC(C)(C)NC(=O)C(c1ccco1)N(Cc1ccc2c(c1)OCO2)C(=O)Cn1nnc2ccccc21 (centres unmarked) | 8.71
O=C(NC(=S)NNC(=O)c1ccco1)c1ccccc1 | 10.8
O=C(/C=C/c1cccc([N+](=O)[O-])c1)NCc1ccco1 | -1.88
CCN(CC)CCCN(C(=O)c1ccco1)c1nc(-c2ccc(Cl)cc2)cs1.Cl | -25.5
COC(=O)c1ccc(CSCC(=O)Nc2cc(OC)cc(OC)c2)o1 | 6.51
CC(C)c1ccccc1-n1c(SCc2cc(=O)oc3ccc4ccccc4c23)nnc1-c1cccnc1 | 2.29

SMILES | hERG current change (%, negative = inhibition) at 1uM [%]
O=S(=O)(Nc1ccc(-c2ccc3nncn3n2)cc1)c1cccc(F)c1 | 14.1
COc1ccc(C(=O)NCc2ccncc2)cc1S(=O)(=O)NCc1ccc(Cl)cc1 | 13.7
Cc1ccc(-n2nc3ccc(NC(=O)c4ccco4)cc3n2)cc1 | 7.57
O=C(c1ccc(COc2ccccc2[N+](=O)[O-])o1)N1CCCCC1 | -12.3
O=c1oc2c(CN3CCN(CCO)CC3)c(O)ccc2cc1-c1ccccn1 | 6.19
CCOc1ccc(N(CC(=O)NCc2ccc(OC)cc2)S(=O)(=O)c2c(C)noc2C)cc1 | 8.93
N#Cc1cc(C#N)c(N2CCN(c3ccccn3)CC2)nc1N | -8.77
Cc1ccc(NC(=O)COC(=O)Cc2c[nH]c3ccccc23)cc1C | 6.36
CCc1ccc2oc(C(=O)Nc3cccnc3)c(C)c2c1 | 3.21
CC1CC2(CC(C)(C(=O)CSc3nc4ccccc4s3)OC2=O)C(=O)O1 (centres unmarked) | -2.98
COc1ccccc1C(=O)NC(C)C(c1cccs1)N1CCN(C)CC1 (centres unmarked) | -2.48
NC(=O)c1nsc(C(=O)N(c2ccccc2F)C(C(=O)NCc2ccc(F)cc2)c2ccc(O)cc2)c1N (centres unmarked) | 4.4
O=C(O)CCCCCNc1nc(=S)[nH]c2ccccc12 | 5.34
COc1ccccc1C(=O)Nc1ccc2c(c1)CN(C(=O)CSC)CC2 | 8.72
COc1ccc(CCN=Cc2c(C)[nH]n(-c3ccc([N+](=O)[O-])cc3)c2=O)cc1OC | 7
O=C(CNC(=O)c1cccc(F)c1)N/N=C/c1ccc([N+](=O)[O-])s1 | 7.15
CC1(C)Oc2ccc(C#N)cc2[C@@H](N2CCCC2=O)[C@@H]1O | 13.3
OCC12COC3c4ccccc4C(OC1)N32 (centres unmarked) | 5.71
Cc1ccc(C)c(NC(=O)Cc2nc(CCl)cs2)c1 | 0.823
COc1ccc(C(=O)C2CCCN(C(=O)CCNC(C)=O)C2)cc1OC (centres unmarked) | 15.3
O=C(O)c1cccc(N/N=C/c2cccs2)c1 | 7.82
CCc1ccc(CCC(=O)Nc2ccccc2C(=O)O)o1 | 4.83
CCOC(=O)C1CCN(Cc2ccc(OC)c(OCc3ccccc3)c2)CC1 | -8.06
Cc1cc(CN2CCCC(C(=O)Nc3ccc(-c4nc5ccccc5[nH]4)cc3)C2)n[nH]1 (centres unmarked) | 5.6
COc1cccc(C(=O)Nc2cc(Cl)c(O)c(Cl)c2)c1 | 10.2
O=C(Nc1ccc(Cl)cc1Cl)C1CCC(=O)N1Cc1ccccc1Cl (centres unmarked) | 0.0248
